Laboratory results from PubChem BioAssay AID1645887 (National Center for Advancing Translational Sciences (NCATS), 2021).
Values joined by “and” are separate entries in the source; they are usually repeats but may differ in a detail not shown here. Equal entries are not always repeated. Screen size: about 16,000 compounds; about 40 (0.2%) were called active. Inconclusive results (about 1%) are left out. The call rests on the fitted dose curve; in most records, active means well fitted activation curve with a large enough effect; inconclusive means small, poorly fitted or top-dose-only effect, or another doubt; inactive means no such curve, though single readings can be large or run the other way. The list shows a part of the results. Non-standard residues stand in square brackets, D forms with d. Residues, ends and D or L forms follow the SMILES beside them. Nle = CCCC[C@H](N)C(=O)O

Molecular target: Rap guanine nucleotide exchange factor 4 (Homo sapiens) (UniProt Q8WZA2)
Assay: Validation qHTS for agonist of cAMP-regulated guanine nucleotide exchange factor 4 (EPAC2);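 further: exchange makes BODIPY-GDP fluorescence drop when released from Rap1B; series mostly up to about 150 µM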
Conditions: EPAC2 Rap1B BODIPY-GDP exchange, fluorescence; activation: hits give high values
Method in brief: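 Fluorescent exchange assay: 100 nM EPAC2 with 250 nM RAP1B-BODIPY-GDP and 50 uM GDP; compound added, 5 min at room temperature, then read (ex 480/em 540 nm) every 5 min for 30 min. Normalized to 6.5 mM cAMP agonist control.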
On the % scale 0 is the no-effect control and ±100 the full control effect.

Sequence of UniProt Q8WZA2 (Q8WZA2 whole entry, looked up): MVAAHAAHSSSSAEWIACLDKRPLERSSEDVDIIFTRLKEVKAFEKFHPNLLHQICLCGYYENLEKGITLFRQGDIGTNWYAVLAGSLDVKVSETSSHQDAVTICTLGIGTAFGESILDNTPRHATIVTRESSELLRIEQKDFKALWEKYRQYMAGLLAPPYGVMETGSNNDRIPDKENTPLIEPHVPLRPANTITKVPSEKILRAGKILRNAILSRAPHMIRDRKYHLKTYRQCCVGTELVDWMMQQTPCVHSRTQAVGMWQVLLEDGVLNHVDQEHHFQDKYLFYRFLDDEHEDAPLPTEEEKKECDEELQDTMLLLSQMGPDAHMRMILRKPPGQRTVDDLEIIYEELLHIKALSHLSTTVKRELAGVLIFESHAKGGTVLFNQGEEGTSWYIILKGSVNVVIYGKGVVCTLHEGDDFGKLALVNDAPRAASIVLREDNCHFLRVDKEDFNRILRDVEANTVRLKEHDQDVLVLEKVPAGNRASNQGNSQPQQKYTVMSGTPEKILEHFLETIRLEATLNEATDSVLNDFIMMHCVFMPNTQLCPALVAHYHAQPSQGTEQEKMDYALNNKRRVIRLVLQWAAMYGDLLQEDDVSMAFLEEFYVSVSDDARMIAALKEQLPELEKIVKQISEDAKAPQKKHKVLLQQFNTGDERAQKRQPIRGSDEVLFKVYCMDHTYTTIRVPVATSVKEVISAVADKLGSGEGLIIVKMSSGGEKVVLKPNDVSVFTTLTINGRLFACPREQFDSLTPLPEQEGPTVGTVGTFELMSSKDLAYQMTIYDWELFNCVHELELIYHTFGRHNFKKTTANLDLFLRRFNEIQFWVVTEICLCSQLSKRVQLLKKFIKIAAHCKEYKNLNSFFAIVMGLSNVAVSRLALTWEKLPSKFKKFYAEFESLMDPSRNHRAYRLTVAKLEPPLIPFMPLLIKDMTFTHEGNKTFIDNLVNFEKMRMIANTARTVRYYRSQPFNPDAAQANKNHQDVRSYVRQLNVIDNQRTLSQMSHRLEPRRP

activation, inactive:
CC(C)(C)[C@H]1CCC(=O)N([C@H](CSc2ccc(Br)cc2)Cc2ccccc2)CC1 -8.77%
CCC(=O)OC1CCC2C3CCc4cc(O)ccc4C3CC[C@]12C (stereo partly specified) -8.28%
CCCC[C@@H](C=O)NC(=O)[C@H](CC(C)C)NC(=O)[C@H](CC(C)C)NC(C)=O (Ac-Leu-Leu-[Nle]-aldehyde) 7.05%
COc1cc(OC)c2c(=O)c(-c3ccc4c(c3)OCO4)coc2c1 -7.12%
Cc1oc(-c2ccccc2NC(=O)c2ccccn2)nc1CNC(=O)c1ccc(Oc2ccccc2)o1 -21.1%
O=c1[nH]cnc2c1ncn2C1OC(CO)C(O)C1O (stereo unspecified) 9.84% and -19.4%
CC(=O)N1CCC2(CC1)CN(c1ccncc1)C2 -20.8%
CN(Cc1cnc2nc(N)nc(N)c2n1)c1ccc(C(=O)N[C@@H](CCC(=O)O)C(=O)O)cc1 -13.1% and 0.252% and -11.3%
Cc1cnc(SCc2ccccn2)nc1C1CCCN(C(=O)c2cccc(-c3cccc(F)c3)c2)C1 (stereo unspecified) 13.2%
O=C(COc1ccc(Cl)cc1)N1CCN(Cc2ccc3c(c2)OCO3)CC1 -4.09%
N[C@@H](Cc1ccc(O)cc1)C(=O)O 2.4%
CNC(C)CCC=C(C)C (stereo unspecified) 0.211%
CCOc1ccc2nc3cc(N)ccc3c(N)c2c1 -1.31% and 10.5%
O=c1c(O)c(-c2ccc(O)c(O)c2)oc2ccccc12 -11.8%
CCN(CC)CCNc1ccc(CO)c2sc3ccccc3c(=O)c12 -6.8%
CC(=O)C1CCC2C3CC(C)C4=CC(=O)CC[C@@]4(C)C3C(O)C[C@@]12C (stereo partly specified) -4.88%
CC(=O)OC[C@H]1O[C@@](COC(C)=O)(O[C@H]2O[C@H](COC(C)=O)[C@@H](OC(C)=O)[C@H](OC(C)=O)[C@H]2OC(C)=O)[C@@H](OC(C)=O)[C@@H]1OC(C)=O -9.28%
O=c1c(CCc2ccccc2)nc2cnc(Oc3ccccc3)nc2n1C[C@H]1CCCO1 -7.84%
CCCCCCCCCC(=O)NC(CN1CCOCC1)[C@H](O)c1ccccc1 (stereo partly specified) -88.2%
Cc1ccc(SC[C@H](C)CN2CC[C@H](C)CCC2=O)cc1 -18.1%
COc1ccccc1CN1CC[C@@]2(CCCN(S(=O)(=O)c3ccccc3)C2)C1 -11.6%
COc1ccc(-c2cn(CCc3c[nH]c4ccccc34)nn2)cc1 -30.2%
CCc1noc(C)c1C(=O)N1CCOc2ccc(CN3CCCC(C(=O)c4cccnc4)C3)cc2C1 (stereo unspecified) -0.865%
Cc1ccsc1/C=C/C1=NCCCN1C -3.35% and -0.108%
CCCCCCCCCCCCCCCCOP(=O)([O-])OCC[N+](C)(C)C -33.6%
Cc1cc(NS(=O)(=O)c2ccc(N)cc2)nc(C)n1 -9.96%
CN1CCN(c2ncc3nc(-c4ccc(Cl)cc4)c(=O)n(Cc4cccs4)c3n2)CC1 -1.85%
CC(Cc1ccc(O)c(O)c1)(NN)C(=O)O (stereo unspecified) -8.8%
CCCn1c(=O)[nH]c2nc(-c3ccc(S(=O)(=O)O)cc3)[nH]c2c1=O -10.8%
O=c1cnc2cnc(Nc3ccccc3)nc2n1Cc1cccs1 6.89%
C[N+](C)(C)CCOC(=O)CCC(=O)OCC[N+](C)(C)C -21.8% and -17.3%
Cc1ccccc1-c1nc(N(C)Cc2ccco2)c2ccccc2n1 10.8%
C=CC1=C(C(=O)O)N2C(=O)[C@@H](NC(=O)/C(=N\O)c3csc(N)n3)[C@H]2SC1 (stereo in doubt) -21.4% and -10.5%
Cc1oc(-c2cccc(NC(=O)c3ccccc3)c2)nc1CNC(=O)c1cnc2ccccn2c1=O -14.2%
CCN1CCc2nc(N)oc2CC1 1.41% and -23.5%
O=C(c1cccc(F)c1)N1CCC2(CCN(Cc3ccccc3)CC2)CC1 -8.74%
CCCCCCCCCCCCCC[N+](C)(C)C -17.2%
COCC(=O)N1CCC2(CC1)CCN(c1ncccn1)CC2 -4.16%
COCC(=O)N1CCC2(CC1)CCN(C(=O)Nc1cccc(F)c1)CC2 -18.6%
C=CCn1c(=O)c2c(nc(-c3ccc(S(=O)(=O)O)cc3)n2C)n(C)c1=O -1.76% and -6.26%
CCCCN1CC[C@H]2C=CC[C@@H](C(=O)NCc3ccc(OC)cc3)[C@H]2C1=O -30.5%
O=C(c1cc2ccccc2o1)N1CCN(Cc2ccccc2)CC1 3.11%
C[C@]12CC[C@@H]3c4ccc(OS(=O)(=O)O)cc4CC[C@H]3[C@@H]1CCC2=O 1.95%
O=c1c(-c2cccc(Cl)c2)nc2cncnc2n1-c1ccccc1 -1.08%
CS(=O)(=O)Nc1cccc(-c2ccc3ncnc(N4CCOCC4)c3c2)c1 -15.1%
CCC1CN(CCNC(=O)c2cccnc2C)Cc2cc(OC)ccc2O1 (stereo unspecified) -5.31%
CSc1ccc2cc(CNCc3ccccc3F)c(N3CCCC(CO)C3)nc2c1 (stereo unspecified) -6.09%
Cc1cnc2c(C)cccc2c1C -3.47%
COc1ccc(Oc2ncc3nc(C)c(=O)n(-c4ccccc4)c3n2)cc1 -8.57%
COc1cc(N)c(N)cc1OC -7.59%
Cc1ncc2c(c1CNC(=O)c1ccc3c(c1)OCO3)CCN(C(=O)c1cccc(-n3cccn3)c1)C2 4.82%
CNC1CCC(c2ccc(Cl)c(Cl)c2)c2ccccc21 (stereo unspecified) -16.6%
COCCn1c(=O)c(-c2ccc(OC)cc2)nc2cnc(Nc3ccccc3)nc21 -9.08%
COc1cccc(OC)c1C(=O)N[C@@H]1C(=O)N2[C@@H]1SC(C)(C)[C@@H]2C(=O)O 4.83%
O=C(c1cnccn1)N1CCC2(CCCN(Cc3nccs3)C2)CC1 -11.3%
COc1cc2c(CCNC(C)=O)c[nH]c2cc1Cl -12.1% and 5.11% and -17.2%
CC1Cc2ccccc2C[N+]1(C)CC(=O)c1cccc([N+](=O)[O-])c1 (stereo unspecified) -28.7%
N#CCCN1CCC(NC(=O)OCc2ccccc2)CCC1=O (stereo unspecified) 7.82%
CO/N=C(/C(=O)NC1C(=O)N2C(C(=O)O)=C(CSc3nc(=O)c(O)nn3C)CSC12)c1csc(N)n1 (stereo unspecified) -20.6%
COc1ccc(C(=O)N2CCC[C@@]3(CCN(Cc4ccncc4)C3)C2)cc1 -7.74%
COc1ccc(-c2nc3cnc(N4CCNCC4)nc3n(C)c2=O)cc1 -9.26%
O=C(CN1Cc2ccccc2OC(c2ccccc2)C1)N1CCCCC1c1cccnc1 (stereo unspecified) 5.71%
COC(=O)N1CCC2(CC1)CN(c1cccc(-c3ccccc3)c1)C2 -4.21%
CN1CCN(c2c(F)cc3c(=O)c(C(=O)O)cn4c3c2OCN4C)CC1 -1.3%
c1cncc(CNc2ncnc3ccc(-c4ccoc4)cc23)c1 -14.5%
CC(C)(C)CC(C)(C)c1ccc(O)c(Cc2ccc(Cl)cc2Cl)c1 -11.9%
COc1cc([C@@H]2Oc3cc([C@H]4Oc5cc(O)cc(O)c5C(=O)[C@H]4O)ccc3O[C@H]2CO)ccc1O -23.5%
COC(=O)C1CCCCN1Cc1ccc2c(c1)CN(Cc1cc(OC)c3c(c1)OCO3)CCO2 (stereo unspecified) -13%
CCNc1ncc2nc(C)c(=O)n(CCC#N)c2n1 -25%
CC1c2ccccc2CN1CC1=NCCN1 (stereo unspecified) 6.43%
CCCCCCCCCCCCCCC(F)C(=O)O (stereo unspecified) -11.2%
O=c1c2ccccc2oc2cc(O)c(C3COCC(CO)C(O)C(O)C3O)c(O)c12 (stereo unspecified) -27.8%
OC(CCCN1CCCCC1)(c1ccccc1)c1ccccc1 -11%
CCN(CC)CCOC(=O)C(c1ccccc1)c1ccccc1 -7.87%
CC(C)c1ccc2c(c1)CC[C@@H]1[C@@](C)(CN)CCC[C@]21C -14.1%
CC(C)c1c(C(=O)NCC2(N3CCCCC3)CCCC2)cnn1-c1nccc(-c2ccco2)n1 4.29%
Cc1cc2nc(N3CCC(NC(C)c4nc(-c5ccccn5)no4)CC3)nc(C)c2cc1C (stereo unspecified) -5.38%
CN(Cc1ccco1)c1nc(-c2cccnc2)nc2ccccc12 -0.195%
Nc1nc2c([nH]c(=O)n2C2OC(CO)C(O)C2O)c(=O)[nH]1 (stereo unspecified) 0.207%
CCOC(=O)c1ccc(N)cc1 -7.85% and -1.2%
Cc1ccc2c(C)ccnc2c1 -12%
CCC1(C2CCN(C(=O)c3ccccc3Cl)CC2)NC(=O)N(CCc2scnc2C)C1=O (stereo unspecified) -2.29%
CC[N+](CC)(CC)CC(=O)Nc1c(C)cccc1C -6.22% [middle of 4 runs]
COc1ccc2[nH]cc(CCNc3cc(-c4c(C)noc4C)ncn3)c2c1 -7.83%
COc1ncc2ncc(=O)n(Cc3cccs3)c2n1 -7.46%
CC(O)(COc1ccccc1)c1ccc2c(c1)CN(Cc1cn[nH]c1-c1ccc(F)cc1)CCO2 (stereo unspecified) -10.5%
